In the supplement of paper PMC11417369:
± gives the standard deviation of the averaged measurements. Some of the results follow.

tested on: PfAP2-I AP2 domain 3 (GST-tagged); assay: gcPBM binding intensity (ln(normalized median fluorescence intensity)); higher = stronger DNA binding
How it was run: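 Probes on an Agilent 4 × 180k array were primer-extended, double-stranded and 36 bp long, taken from intergenic genomic regions, with negative controls added. GST-tagged P. falciparum DNA-binding domains from E. coli, about 25 μg on average, were applied to the array for 1 h in 1× PBS containing 1% milk, 0.2 mg/ml BSA, 0.5% salmon testes DNA and 0.03% Triton X-100. Binding intensity, obtained after Alexa488 anti-GST antibody detection and a 488 nm scan, is the highest Masliner-normalised natural-log median intensity across replicate spots of either probe orientation.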

Row | Sequence | gcPBM binding intensity (ln)
1 | TATAGATGTGGTTTATGTACATACTATAAAAAATCA [XGTACX_site1400] | 7.99 ± 0.44
2 | TTATATATATATATATAATATATATATATTTAAATA [XGTACX_negctrl_site453] | 7.88 ± 0.52
3 | AAGAATATAATCTTCACACATATATATATATATATA [CACACA_site5927] | 9.36 ± 0.35
4 | AAGGACAACAAACAAACACACACAAAAAAAAAATAA [CACACA_site9263] | 7.96 ± 0.25
5 | ACCTAATATTATTAAACATGCACATTTGCATAAATA [TGCATGCA_site870] | 8.75 ± 0.64
6 | CAAAATGAAAGGAAAAGTACATTTAAATGAATAAAT [XGTACX_site8241] | 7.8 ± 0.77
7 | AAATAATTCAAAAAAACACACAAATTACAAAATAAA [CACACA_site269] | 7.7 ± 0.53
8 | GTATAATATTCATATTCACACATTAAAATATATTTA [CACACA_site4879] | 7.74 ± 0.45
9 | TAAAAATATATTATATGTACGTATAACAATGTATGA [XGTACX_site8606] | 7.96 ± 0.41
10 | CCCTTTTTTTTTTAATGTACATATAATTATATATTT [XGTACX_site8568] | 8.27 ± 0.51
11 | GGAAACCTTTTTTTTACACACAATATATTAAGACTT [CACACA_site4899] | 7.74 ± 0.67
12 | AATTGTACGTAGGGGTATAAAAGCTTAAAAATGGGG [CACACA_negctrl_site1392] | 9.18 ± 0.23
13 | AAAGCAAAAGGAAAATAACCAACCCTAATTAACACA [CACACA_negctrl_site530] | 7.89 ± 0.46
14 | TAGTATTAAATATATACACACATATATACATATAGA [CACACA_site2154] | 7.59 ± 0.35
15 | TTAATTTTTTTTTCTTGTACACACTATTTTATAATT [XGTACX_site8783] | 8.19 ± 0.49
16 | GTTGCACAATGTTACACACACAATATATATCGTTAA [CACACA_site1275] | 8.28 ± 0.4
17 | GTGTACTTTTAAATAGTGCATTTTACAATAATAAAA [GTGCAC_site9653] | 9.88 ± 0.32
18 | GTAATAAAATGACATACATGCATTACAATTATGTAA [TGCATGCA_site220] | 7.78 ± 0.47
19 | TATTATAATACTTATTGTACTTTTAGGTTAATTTAT [XGTACX_site995] | 7.75 ± 0.48
20 | AAGGCAAACAAACACACACACATATATACCTATATA [CACACA_site5203] | 7.87 ± 0.57
21 | AGAAATGAAATCCAAAAACGAGGAACCAATAACGCA [CACACA_negctrl_site1758] | 8 ± 0.81
22 | TCTTATCCATATATTACACACTATATATAGAAATTA [CACACA_site291] | 7.85 ± 0.59

Row | Sequence | gcPBM binding intensity (ln)
23 | ATATTATATTATTAATGTACATATATATAATTTTAA [XGTACX_site4974] | 7.59 ± 0.29
24 | TAGGTCCTCATTTTATGTACATAAAGAAATATGATT [XGTACX_site4138] | 7.86 ± 0.36
25 | TACATACATACATACACACACACATATATATATATA [CACACA_site42] | 9.51 ± 0.2
26 | TCCTTCGAAACTAAAATTCATTTAAAATATTGATAT [CACACA_negctrl_site369] | 7.33 ± 0.61
27 | AAAGAAAAAAAAATTACACACATATATTATAGATAT [CACACA_site7495] | 7.44 ± 0.79
28 | ATATATGCTAATATATGTACTGATTATATCTCTTCA [XGTACX_site7156] | 7.47 ± 0.47
29 | ATATAAACATTTAGTAATCCATATAGGTACTACTGA [CACACA_negctrl_site1249] | 7.62 ± 0.31
30 | AAAAAAAATATATAAACACACATATTTATATACGCA [CACACA_site1631] | 7.41 ± 0.47
31 | TATTTATAGATATATACACACATATACATATTGTTT [CACACA_site7611] | 7.64 ± 0.28
32 | AAATTAGACTATAATACACACATAAAAAAAAAAAAA [CACACA_site6155] | 7.91 ± 0.45
33 | AGATATCTTGTGAAATAAAAAAAATAATTGCTTATA [CACACA_negctrl_site798] | 7.32 ± 0.61
34 | CATCTTAGTTTGAGTTGTACAATATTTATAAAAATA [XGTACX_site693] | 7.99 ± 0.35
35 | ACAAGTTTAACATTTCGTACTTATTGTGTTTTTTTT [XGTACX_site5487] | 7.72 ± 0.89
36 | GCAGTATTTCGGAACACACAAACATAAATATGTATT [CACACA_site2316] | 7.74 ± 0.57
37 | ATATATATATATGTATGTACATATTTTTTTTAACAC [XGTACX_site8475] | 9.29 ± 0.14
38 | ATATATATTTAAAGATGTACATAATGAAATGGTTAT [XGTACX_site4706] | 8.23 ± 0.56
39 | AAATTTATTTATTATAGTACACTTAATACTACCCAA [XGTACX_site41] | 8.02 ± 0.23
40 | AGCACAGACGGACACACACACACACCCACAGACACA [CACACA_site4358] | 8.23 ± 0.38
41 | GCACAATTTACACTTAAACACACAAAAAAAAATTAT [CACACA_site8642] | 8.09 ± 0.31
42 | TATACACGCGGACACACACACACACGCAAAAAAAAA [CACACA_site6377] | 8.53 ± 0.31
43 | TTTACACCGTAATATGCATGTGTGTATATATTTTTG [TGCATGCA_site186] | 7.74 ± 0.52
44 | ATAAGCCATTTTTGTGGTACATAAAATAGATATATA [XGTACX_site5175] | 7.63 ± 0.3

Row | Sequence | gcPBM binding intensity (ln)
45 | TAAAAACCAAAGAAAAGTACAAATTTAAATGAGAAA [XGTACX_site7450] | 7.83 ± 0.88
46 | TAAACACCCATATAAACACACATACATACATACATA [CACACA_site5383] | 8.1 ± 0.9
47 | GATTAATTTAAAAAATGTACATTTTATTGTATAACC [XGTACX_site5539] | 7.79 ± 0.47
48 | ACAATATGTATATATATATATATGCAAATGTATAAA [CACACA_negctrl_site53] | 7.88 ± 0.5
49 | CCAAGAAACCAAAAAAGTACATACATGGTTATAATT [XGTACX_site4249] | 7.88 ± 0.36
50 | TGAACTCATAGATTTAGTACATATATAAAAAAATTC [XGTACX_site1692] | 7.66 ± 0.47
51 | ATATTAAATTCAATTTAATGTTTTGTGAATTTTAGA [CACACA_negctrl_site1421] | 7.32 ± 0.42
52 | TTAAATGGAAAAATATGTACATATATATATATATTT [XGTACX_site2286] | 7.86 ± 0.43
53 | TTTGTTAAAAATATATTATGAATAAAAATATATTTT [CACACA_negctrl_site170] | 7.31 ± 0.61
54 | TACAAAATAACTAGCACACATATGTATAAACATATA [CACACA_site5948] | 7.92 ± 0.28
55 | TATGTCAATCAAGCAAGTACATATATATATAAATAT [XGTACX_site7554] | 7.66 ± 0.33
56 | AATTATATTACGAAATGTACATATAATAATGTATAT [XGTACX_site4410] | 7.79 ± 0.26
57 | GCCATTGTACCATCCACACACATATATATATGTATA [CACACA_site2704] | 8.6 ± 0.65
58 | TTCAAAACTTAAAATCGTACAAGACAATTATTATAT [XGTACX_site6626] | 7.55 ± 0.37
59 | TTAAAACATAAAAAAAGTACATACAAATATATATAA [XGTACX_site789] | 7.83 ± 0.4
60 | CATATATATTTATGTACACACATTAATAAAAAAAAA [CACACA_site5741] | 8.09 ± 0.099
61 | CTTTTAATATTAAGATGTACTTAGAATTTTTTTTTT [XGTACX_site8338] | 7.53 ± 0.54
62 | TGTAGAGCGCAAAGTAGTACTACAAATTATGGAGGG [XGTACX_site3022] | 8.38 ± 0.46
63 | AACAGCATATCACATTTCTTCAAAAAAAAATAAAAT [CACACA_negctrl_site733] | 7.62 ± 0.54
64 | ATATATATAAATAATTGTACTTAAAAAAAAAAAAGG [XGTACX_site6847] | 8.02 ± 0.26
65 | TAAAAAAAGAGATATTGTACACAAAAAAATTTTACT [XGTACX_site1342] | 7.82 ± 0.58
66 | AAGTTCAAAATAAATGGTACAGAAGTATATATATCA [XGTACX_site174] | 7.71 ± 0.64

Row | Sequence | gcPBM binding intensity (ln)
67 | TAGAAAAAAAAATACATACACACAATATATTTATTT [CACACA_site3123] | 7.33 ± 0.67
68 | AAAATCTAGGTATTTATACACACTAATATAATATAC [CACACA_site8108] | 7.74 ± 0.52
69 | TATATATTTGTGAAAATATTAAAATAAATAAATAAA [CACACA_negctrl_site295] | 7.76 ± 0.55
70 | AACCCTTTTGATTTTTCTTTTTTTTTTTTTTTAAAT [CACACA_negctrl_site1667] | 7.5 ± 0.69
71 | CATATAAGACAAAAGGTGCAATTTTAATGCTTTTAT [GTGCAC_site9432] | 9.99 ± 0.071
72 | TAGTAAAATGGAACACGTACATATATCTATGTATAA [XGTACX_site6103] | 7.73 ± 0.51
73 | ACAGTTTGTCTGAGTAGTACATAAATACTTGAAAGG [XGTACX_site7792] | 7.93 ± 0.52
74 | AGAAGGATATTATGAAGTACACATATTGTATATGGT [XGTACX_site7503] | 7.75 ± 0.43
75 | CCATATATAATGACATGTACTCAAAAAAAAAAAAAA [XGTACX_site685] | 8.04 ± 0.52
76 | TAATTCAAACGTGTATGTATATTACTCGAAGAAATA [CACACA_negctrl_site1779] | 7.22 ± 0.61
77 | TTTCAAGGATTTAATTTATGGAAACCTTCTTCATTT [GTGCAC_negctrl_site504] | 7.21 ± 0.53
78 | TTTTTAAAAAAAAATAGAGAGTCAAAGTATGTGGCG [CACACA_negctrl_site194] | 7.95 ± 0.61
79 | TTTCTCTTTTTTTGGGGTACAACCAATCCTATAATA [XGTACX_site297] | 8.23 ± 0.33
80 | ATACATATATATATATGTACATATATTTATATTTAT [XGTACX_site3155] | 7.74 ± 0.33
81 | ACAAATAAAAAAATTACACACATATAAAATATAGAT [CACACA_site6756] | 7.53 ± 0.51
82 | TATGAGAACAAACATTGTACAATAAAAAGTAGATAT [XGTACX_site920] | 8.2 ± 0.73
83 | AGGAAAATAATTAAAGCATGCTCATTATGAAATATA [TGCATGCA_site855] | 7.55 ± 0.71
84 | AATACATGAACTTAAAGTACTAAAAAAAAAATAATA [XGTACX_site1956] | 7.83 ± 0.4
85 | TACCCACTAAAATACACACACACACCCACATATATA [CACACA_site6141] | 8.04 ± 0.26
86 | AATTTGAATATTTGATGTACAAAGTTTTTTAATGTT [XGTACX_site3249] | 7.59 ± 0.4
87 | TCTTACACTAATAAATGTACATACAAAAAATCTATT [XGTACX_site1379] | 7.91 ± 0.31
